No constants are given. Whether binding was seen depends on the method and setting. Binding seen in cells or lysates may run through a third protein. Some entries that bind do so weakly or less than the wild type. For some of these results: Where a sequence is shown, tags or fusion partners need not be part of it. One block for each molecule: values may come before it.
Tests used:
[1] = target: T1, GST-C127/207 (Corto chromodomain) (Drosophila) (UniProt P41046); assay: pull-down; GST-Corto fragment fusion proteins on beads, in vitro translated 35S-ERK, autoradiography; only the target purified
T1 sequence: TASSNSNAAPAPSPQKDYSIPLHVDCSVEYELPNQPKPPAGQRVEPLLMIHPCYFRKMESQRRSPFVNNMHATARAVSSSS

Sequences of proteins named here, by UniProt entry; tags and fusion partners are left off.
UniProt P40417: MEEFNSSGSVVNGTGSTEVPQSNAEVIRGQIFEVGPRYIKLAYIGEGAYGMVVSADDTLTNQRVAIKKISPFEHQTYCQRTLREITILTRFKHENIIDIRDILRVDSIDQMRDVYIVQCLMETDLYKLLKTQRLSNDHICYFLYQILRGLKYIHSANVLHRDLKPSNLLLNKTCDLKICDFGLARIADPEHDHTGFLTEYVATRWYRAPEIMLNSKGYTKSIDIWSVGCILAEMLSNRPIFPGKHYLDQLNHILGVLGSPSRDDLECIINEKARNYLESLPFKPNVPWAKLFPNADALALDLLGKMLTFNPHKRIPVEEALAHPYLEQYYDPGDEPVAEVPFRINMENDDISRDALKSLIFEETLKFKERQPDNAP

[2] = target: T2, GST-C1/324 (NH2-terminal half of Corto) (Drosophila) (UniProt P41046); assay: as above
T2 sequence: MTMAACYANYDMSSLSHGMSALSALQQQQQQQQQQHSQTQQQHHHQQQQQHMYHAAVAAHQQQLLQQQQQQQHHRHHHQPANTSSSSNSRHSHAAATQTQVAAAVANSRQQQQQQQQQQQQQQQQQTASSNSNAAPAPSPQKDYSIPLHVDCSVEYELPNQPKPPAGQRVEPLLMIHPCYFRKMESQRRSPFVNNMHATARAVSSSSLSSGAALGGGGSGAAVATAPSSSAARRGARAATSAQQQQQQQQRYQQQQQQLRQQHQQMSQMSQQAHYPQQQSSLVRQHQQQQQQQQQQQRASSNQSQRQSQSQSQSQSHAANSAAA

[3] = target: T3, GST-C418/503 (part of the two COOH-terminal globular domains of Corto) (Drosophila) (UniProt P41046); assay: as above
T3 sequence: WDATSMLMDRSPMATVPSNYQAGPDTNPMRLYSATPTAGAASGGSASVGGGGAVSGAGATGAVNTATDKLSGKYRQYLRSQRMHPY

[4] = target: T4, GST-C325/550 (COOH-terminal half of Corto) (Drosophila) (UniProt P41046); assay: as above
T4 sequence: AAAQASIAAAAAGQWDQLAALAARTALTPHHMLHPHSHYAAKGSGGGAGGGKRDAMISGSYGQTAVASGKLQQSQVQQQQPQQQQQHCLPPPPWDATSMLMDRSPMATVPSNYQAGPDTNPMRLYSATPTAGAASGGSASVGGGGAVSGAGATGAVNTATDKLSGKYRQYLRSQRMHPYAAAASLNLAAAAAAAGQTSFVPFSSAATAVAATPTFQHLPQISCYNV

[5] = target: ERK-FLAG (Drosophila) (UniProt P40417); assay: co-IP; cytoplasmic extracts of S2 cells expressing tagged proteins (two protocols of extraction); 500 ug extract, anti-FLAG IP (anti-HA mock IP), protein G-agarose beads
[6] = target: ERK-FLAG (Drosophila) (UniProt P40417); assay: co-IP; nuclear extracts of S2 cells expressing tagged proteins; 500 ug extract, anti-FLAG IP (anti-HA mock IP), protein G-agarose beads, blot with anti-FLAG or anti-Myc
[7] = target: di-phosphorylated form of ERK (dP-ERK), endogenous (Drosophila (endogenous in embryos)) (UniProt P40417); assay: co-IP; endogenous proteins, total embryonic extract; monoclonal anti-dP-ERK E10 antibody covalently bound onto protein G-agarose beads; blot with rat anti-Corto antibodies

- binding [1]: no binding
- binding [2]: binds
- binding [3]: no binding
- binding [4]: binds
Molecule: in vitro translated 35S-ERK (from UniProt P40417 1-376) (enzyme)

- binding [6]: binds
B1: Corto-Myc (protein, UniProt P41046 1-550)
chain: MTMAACYANYDMSSLSHGMSALSALQQQQQQQQQQHSQTQQQHHHQQQQQHMYHAAVAAHQQQLLQQQQQQQHHRHHHQPANTSSSSNSRHSHAAATQTQVAAAVANSRQQQQQQQQQQQQQQQQQTASSNSNAAPAPSPQKDYSIPLHVDCSVEYELPNQPKPPAGQRVEPLLMIHPCYFRKMESQRRSPFVNNMHATARAVSSSSLSSGAALGGGGSGAAVATAPSSSAARRGARAATSAQQQQQQQQRYQQQQQQLRQQHQQMSQMSQQAHYPQQQSSLVRQHQQQQQQQQQQQRASSNQSQRQSQSQSQSQSHAANSAAAAAAQASIAAAAAGQWDQLAALAARTALTPHHMLHPHSHYAAKGSGGGAGGGKRDAMISGSYGQTAVASGKLQQSQVQQQQPQQQQQHCLPPPPWDATSMLMDRSPMATVPSNYQAGPDTNPMRLYSATPTAGAASGGSASVGGGGAVSGAGATGAVNTATDKLSGKYRQYLRSQRMHPYAAAASLNLAAAAAAAGQTSFVPFSSAATAVAATPTFQHLPQISCYNV
- binding [5]: no binding (condition: in cytoplasmic extract)

- binding [7]: binds
B2: Corto (endogenous, total embryonic protein extract) (protein, UniProt P41046 1-550)
chain: MTMAACYANYDMSSLSHGMSALSALQQQQQQQQQQHSQTQQQHHHQQQQQHMYHAAVAAHQQQLLQQQQQQQHHRHHHQPANTSSSSNSRHSHAAATQTQVAAAVANSRQQQQQQQQQQQQQQQQQTASSNSNAAPAPSPQKDYSIPLHVDCSVEYELPNQPKPPAGQRVEPLLMIHPCYFRKMESQRRSPFVNNMHATARAVSSSSLSSGAALGGGGSGAAVATAPSSSAARRGARAATSAQQQQQQQQRYQQQQQQLRQQHQQMSQMSQQAHYPQQQSSLVRQHQQQQQQQQQQQRASSNQSQRQSQSQSQSQSHAANSAAAAAAQASIAAAAAGQWDQLAALAARTALTPHHMLHPHSHYAAKGSGGGAGGGKRDAMISGSYGQTAVASGKLQQSQVQQQQPQQQQQHCLPPPPWDATSMLMDRSPMATVPSNYQAGPDTNPMRLYSATPTAGAASGGSASVGGGGAVSGAGATGAVNTATDKLSGKYRQYLRSQRMHPYAAAASLNLAAAAAAAGQTSFVPFSSAATAVAATPTFQHLPQISCYNV

— article PMC3062617
